Data taken from PubChem BioAssay (NCI).
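Grown in 96-well plates, cells were treated for 48 hours with each compound at five concentrations. Insufficient inhibition: endpoint recorded as highest concentration tested. Here, GI50 denotes the concentration required for 50% inhibition of growth.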 For part of its entries the source gives two or more results. This is not the full list of results. An entry can have further records. For some of these results: Records of one sample usually come from different ranges of test concentrations, not given here; a value can be the end of its range. What stands in brackets tells the records apart. The letters are not those of the source and start again with each entry. For some of these results: Values that stand side by side repeat one measurement (runs, samples, wells, individuals or studies).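 The concentration for full growth arrest is given as TGI.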

Key:
Assay in all cases: NCI tumour cell line growth inhibition, 48 h
SF-539 CNS = tested on: SF-539 CNS
LOX IMVI melanoma = tested on: LOX IMVI melanoma
BT-549 breast = tested on: BT-549 breast
NCI-H23 lung = tested on: NCI-H23 lung
HOP-62 NSCLC = tested on: HOP-62 NSCLC
MOLT-4 leukemia = tested on: MOLT-4 leukemia
MALME-3M melanoma = tested on: MALME-3M melanoma
HCT-116 colon = tested on: HCT-116 colon
OVCAR-5 ovarian = tested on: OVCAR-5 ovarian
SR leukemia = tested on: SR leukemia
TK-10 renal = tested on: TK-10 renal
T-47D breast = tested on: T-47D breast
786-0 renal = tested on: 786-0 renal
MCF7 breast = tested on: MCF7 breast
SF-295 CNS = tested on: SF-295 CNS
A498 renal = tested on: A498 renal
COLO 205 colon = tested on: COLO 205 colon
SK-MEL-5 melanoma = tested on: SK-MEL-5 melanoma
HCT-15 colon = tested on: HCT-15 colon
NCI-H226 lung = tested on: NCI-H226 lung
SNB-75 CNS = tested on: SNB-75 CNS
M14 melanoma = tested on: M14 melanoma
HCC-2998 colon = tested on: HCC-2998 colon
MDA-MB-435 = tested on: MDA-MB-435
CAKI-1 renal = tested on: CAKI-1 renal
HL-60(TB) leukemia = tested on: HL-60(TB) leukemia
OVCAR-8 ovarian = tested on: OVCAR-8 ovarian
U251 CNS = tested on: U251 CNS
SK-MEL-28 melanoma = tested on: SK-MEL-28 melanoma
SNB-19 CNS = tested on: SNB-19 CNS
UACC-257 melanoma = tested on: UACC-257 melanoma
OVCAR-4 ovarian = tested on: OVCAR-4 ovarian
RXF 393 renal = tested on: RXF 393 renal
MDA-MB-231 breast = tested on: MDA-MB-231 breast
HT29 colon = tested on: HT29 colon
NCI-H460 lung = tested on: NCI-H460 lung
ACHN renal = tested on: ACHN renal
SK-MEL-2 melanoma = tested on: SK-MEL-2 melanoma
KM12 colon = tested on: KM12 colon
DU-145 prostate = tested on: DU-145 prostate
UACC-62 melanoma = tested on: UACC-62 melanoma

COC1=C(N)C(=O)c2nc(-c3nc(C(=O)O)c(C)c(-c4ccc(OC)c(OC)c4O)c3N)ccc2C1=O
GI50 (SF-539 CNS): 2.13 nM [sample A, 1 test] and < 10 nM [sample A, mean of 2 tests] and 11.6 nM [sample B, 1 test] and 1.59 nM [sample B, mean of 3 tests]
TGI (SF-539 CNS): 18.4 nM [sample A, 1 test] and < 10 nM [sample A, mean of 2 tests] and 37.2 nM [sample B, 1 test] and 6.58 nM [sample B, mean of 3 tests]
TGI (LOX IMVI melanoma): 31 nM, 16.5 nM [sample A] and 232 nM [sample B]
GI50 (BT-549 breast): 15.9 nM [sample A, 1 test] and 1.14 nM [sample B, mean of 2 tests]
TGI (BT-549 breast): 75.3 nM, 15.4 nM [sample A] and 1.89 nM [sample B]
GI50 (NCI-H23 lung): 1.43 nM [sample A, 1 test] and < 10 nM [sample A, mean of 3 tests] and 1.35 nM [sample B, mean of 2 tests] and 1.46 nM [sample B, mean of 3 tests]
TGI (NCI-H23 lung): 25.3 nM [sample A, 1 test] and < 10 nM [sample A, mean of 3 tests] and 22.9 nM [sample B, mean of 2 tests] and 8.31 nM [sample B, mean of 3 tests]
GI50 (HOP-62 NSCLC): 2.23 nM [sample A, 1 test] and < 10 nM [sample A, mean of 3 tests] and 1 nM [sample B, mean of 2 tests] and 1.17 nM [sample B, mean of 3 tests]
GI50 (MOLT-4 leukemia): 4.08 nM [sample A, 1 test] and < 10 nM [sample A, mean of 2 tests] and 1.48 nM [sample B, mean of 2 tests] and 4.82 nM [sample B, mean of 3 tests]
GI50 (MALME-3M melanoma): 8.52 nM [sample A, 1 test] and < 10 nM [sample A, mean of 3 tests] and 1.13 nM [sample B, mean of 2 tests] and 4.46 nM [sample B, mean of 3 tests]
TGI (MALME-3M melanoma): 27.2 nM [sample A, 1 test] and 16 nM [sample A, mean of 3 tests] and 15.3 nM [sample B, 1 test] and 2.88 nM [sample B, mean of 2 tests]
TGI (HCT-116 colon): 35.7 nM, 23.2 nM [sample A] and 295 nM, 24.3 nM [sample B]
TGI (OVCAR-5 ovarian): 36.2 nM [sample A, 1 test] and 79.3 nM [sample A, mean of 3 tests] and 26.7 nM [sample B, 1 test] and 102 nM [sample B, mean of 2 tests]
GI50 (SR leukemia): 6.17 nM, < 10 nM [sample A, 1 test] and 3.37 nM, 1.78 nM [sample B, mean of 2 tests]
TGI (SR leukemia): < 10 nM [sample A, 1 test] and 78.3 nM [sample B, 1 test] and 449 nM [sample B, mean of 2 tests]
GI50 (TK-10 renal): 48.2 nM, 24.3 nM [sample A, 1 test] and 4.03 nM [sample B, mean of 2 tests]
GI50 (T-47D breast): 8.78 nM, < 10 nM [sample A, 1 test] and < 0.1 nM [sample B, 1 test] and 2.97 nM [sample B, mean of 3 tests]
TGI (T-47D breast): 61.7 nM, 15.5 nM [sample A, 1 test] and 0.549 nM [sample B, 1 test] and 7.88 nM [sample B, mean of 3 tests]
GI50 (786-0 renal): 2.69 nM, < 10 nM [sample A, 1 test] and 1.03 nM [sample B, mean of 2 tests] and 2.85 nM [sample B, mean of 3 tests]
GI50 (MCF7 breast): 0.0628 nM [sample A, 1 test] and < 10 nM [sample A, mean of 3 tests] and 0.367 nM [sample B, mean of 2 tests] and 0.283 nM [sample B, mean of 3 tests]
TGI (MCF7 breast): 12.9 nM [sample A, 1 test] and 22.8 nM [sample A, mean of 3 tests] and 1.43 nM [sample B, mean of 2 tests]
GI50 (SF-295 CNS): 3.61 nM [sample A, 1 test] and < 10 nM [sample A, mean of 3 tests] and 1.22 nM [sample B, mean of 2 tests] and 2.94 nM [sample B, mean of 3 tests]
TGI (A498 renal): 28.9 nM [sample A] and 2.54 nM [sample B]
GI50 (COLO 205 colon): 26.8 nM [sample A, 1 test] and 12.2 nM [sample A, mean of 3 tests] and 20.1 nM [sample B, 1 test] and 2.39 nM [sample B, mean of 2 tests]
TGI (COLO 205 colon): 29 nM [sample A, mean of 3 tests] and 106 nM [sample B, 1 test] and 4.83 nM [sample B, mean of 2 tests]
TGI (SK-MEL-5 melanoma): 26.6 nM, 12.9 nM [sample A] and 2.56 nM [sample B]
TGI (HCT-15 colon): 45.2 nM [sample A, 1 test] and 35.4 nM [sample A, mean of 2 tests] and 3.55 nM [sample B, mean of 2 tests]
TGI (NCI-H226 lung): 21.9 nM, < 10 nM [sample A] and 2.04 nM [sample B]
GI50 (SNB-75 CNS): 1.81 nM [sample A, 1 test] and < 12.5 nM [sample A, mean of 3 tests] and 0.723 nM [sample B, mean of 2 tests] and 1.68 nM [sample B, mean of 3 tests]
TGI (SNB-75 CNS): 12.2 nM [sample A, 1 test] and < 22.2 nM [sample A, mean of 3 tests] and 30.3 nM [sample B, 1 test] and 1.78 nM [sample B, mean of 2 tests] and 4.6 nM [sample B, mean of 3 tests]
GI50 (M14 melanoma): 26.8 nM, < 10 nM [sample A, 1 test] and 22.4 nM [sample B, 1 test] and 3.72 nM [sample B, mean of 3 tests]
TGI (M14 melanoma): 11.3 nM [sample A, 1 test] and 169 nM [sample B, 1 test]
TGI (HCC-2998 colon): 22 nM, 22.4 nM [sample A] and 1.84 nM, 17 nM [sample B]
TGI (MDA-MB-435): 25.8 nM, 16.6 nM [sample A] and 252 nM [sample B]
GI50 (CAKI-1 renal): 0.694 nM [sample A, 1 test] and < 10 nM [sample A, mean of 3 tests] and 0.485 nM [sample B, mean of 2 tests] and 1.38 nM [sample B, mean of 3 tests]
TGI (CAKI-1 renal): 30.3 nM [sample A, 1 test] and 32.5 nM [sample A, mean of 3 tests] and 1.13 nM [sample B, mean of 2 tests]
GI50 (HL-60(TB) leukemia): 3.28 nM [sample A, 1 test] and < 10 nM [sample A, mean of 3 tests] and 1.2 nM [sample B, mean of 2 tests] and 3.27 nM [sample B, mean of 3 tests]
GI50 (OVCAR-8 ovarian): 4.83 nM [sample A, 1 test] and < 10 nM [sample A, mean of 3 tests] and 1.12 nM [sample B, mean of 2 tests] and 3.73 nM [sample B, mean of 3 tests]
GI50 (U251 CNS): 0.641 nM [sample A, 1 test] and < 10 nM [sample A, mean of 3 tests] and < 0.1 nM [sample B, 1 test] and 0.403 nM [sample B, mean of 3 tests]
TGI (U251 CNS): 5.34 nM [sample A, 1 test] and < 10 nM [sample A, mean of 3 tests] and 1.43 nM, 11.4 nM [sample B, 1 test] and 6.03 nM [sample B, mean of 3 tests]
GI50 (SK-MEL-28 melanoma): 14 nM [sample A, 1 test] and < 10.4 nM [sample A, mean of 3 tests] and 10.9 nM [sample B, 1 test] and 1.77 nM [sample B, mean of 2 tests]
TGI (SK-MEL-28 melanoma): 62.8 nM [sample A, 1 test] and 24.6 nM [sample A, mean of 3 tests] and 48.8 nM [sample B, 1 test] and 93.8 nM [sample B, mean of 2 tests]
GI50 (SNB-19 CNS): 6.6 nM [sample A, 1 test] and < 10 nM [sample A, mean of 2 tests] and 1.22 nM [sample B, mean of 2 tests] and 3.41 nM [sample B, mean of 3 tests]
TGI (UACC-257 melanoma): 97.1 nM, 28.6 nM [sample A] and 6.3 nM, 28 nM [sample B]
GI50 (OVCAR-4 ovarian): 42.6 nM [sample A, 1 test] and 19.6 nM [sample A, mean of 3 tests] and 16.6 nM [sample B, 1 test] and 3.99 nM [sample B, mean of 2 tests]
GI50 (RXF 393 renal): 1.38 nM [sample A, 1 test] and < 11.2 nM [sample A, mean of 3 tests] and < 0.1 nM [sample B, 1 test] and 1.29 nM [sample B, mean of 2 tests]
GI50 (MDA-MB-231 breast): 15 nM, 1.12 µM [sample A, 1 test] and 18.9 nM [sample B, mean of 2 tests] and 9.12 nM [sample B, mean of 3 tests]
TGI (MDA-MB-231 breast): 76.5 nM, 3.33 µM [sample A, 1 test] and 83.5 nM [sample B, mean of 2 tests]
GI50 (HT29 colon): 28 nM [sample A, 1 test] and 15.1 nM [sample A, mean of 3 tests] and 12.2 nM [sample B, 1 test] and 7.39 nM [sample B, mean of 2 tests]
GI50 (NCI-H460 lung): 0.537 nM [sample A, 1 test] and < 10 nM [sample A, mean of 3 tests] and 0.474 nM [sample B, mean of 2 tests] and 0.29 nM [sample B, mean of 3 tests]
TGI (NCI-H460 lung): 15.5 nM [sample A, 1 test] and < 12.6 nM [sample A, mean of 3 tests] and 14.1 nM [sample B, 1 test] and 1.32 nM [sample B, mean of 2 tests]
GI50 (ACHN renal): 2.32 nM, < 10 nM [sample A, 1 test] and 0.742 nM [sample B, mean of 2 tests] and 1.69 nM [sample B, mean of 3 tests]
GI50 (SK-MEL-2 melanoma): 8.97 nM [sample A, 1 test] and < 12.1 nM [sample A, mean of 3 tests] and 18.2 nM [sample B, 1 test] and 5.84 nM [sample B, mean of 3 tests]
TGI (SK-MEL-2 melanoma): 25.2 nM [sample A, 1 test] and 23.5 nM [sample A, mean of 3 tests] and 33.7 nM, 22.8 nM [sample B, 1 test] and 8.87 nM [sample B, mean of 3 tests]
GI50 (KM12 colon): 20.1 nM [sample A, 1 test] and 10.1 nM [sample A, mean of 3 tests] and 1.4 nM [sample B, mean of 2 tests]
TGI (KM12 colon): 83.1 nM [sample A, 1 test] and 17.8 nM [sample A, mean of 3 tests] and 21 nM [sample B, 1 test] and 2.37 nM [sample B, mean of 2 tests]
GI50 (DU-145 prostate): 6.43 nM, < 10 nM [sample A, 1 test] and 2.37 nM [sample B, mean of 2 tests] and 4.62 nM [sample B, mean of 3 tests]
TGI (UACC-62 melanoma): 13.1 nM [sample A, 1 test] and 14.3 nM [sample A, mean of 3 tests] and 19.2 nM [sample B, 1 test] and 5.6 nM [sample B, mean of 3 tests]
